# In the BET-seq Pho4 binding data (Le et al. 2018):
# The other results are listed elsewhere or left out. These are noisy estimates, calculated here from bound and input reads.
# Molecular target: T1, Pho4 (S. cerevisiae) (UniProt P07270)
# T1 sequence: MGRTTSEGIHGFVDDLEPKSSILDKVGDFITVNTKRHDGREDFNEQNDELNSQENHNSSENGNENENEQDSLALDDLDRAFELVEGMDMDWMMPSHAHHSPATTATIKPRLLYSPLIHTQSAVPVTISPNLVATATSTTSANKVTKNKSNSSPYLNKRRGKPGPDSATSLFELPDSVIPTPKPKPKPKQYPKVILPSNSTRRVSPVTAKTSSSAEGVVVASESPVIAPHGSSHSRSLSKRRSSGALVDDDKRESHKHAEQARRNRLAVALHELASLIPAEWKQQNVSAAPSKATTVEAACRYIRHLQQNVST
# Experiment: relative binding free energy (BET-seq); higher = weaker binding
# Settings: reference: library average
row,Sequence,relative binding free energy [kcal/mol]
1,TGTGTCACGTGACTGC,0.08
2,TTTACCACGTGTCGGT,0.1
3,TGGTTCACGTGTGCAA,0.45
4,TGTGGCACGTGGTTAA,-0.16
5,AGCCGCACGTGAGGGT,0.07
6,AAAATCACGTGTATAT,0.3
7,TAATGCACGTGGTGAT,-0.07
8,ATGAGCACGTGTTTCT,0
9,TAGTTCACGTGAAGCG,0.3
10,CTTGGCACGTGTAGTG,-0.15
11,CATATCACGTGGGAGT,0.2
12,CTGAACACGTGTAGGG,0.09
13,ATGGACACGTGAGTTA,0.28
14,TAGGGCACGTGAATTG,0.15
15,AATTTCACGTGTGTGC,0.23
16,GTAAGCACGTGTTGCT,-0.12
17,GTGCGCACGTGGCATG,0.01
18,CGTACCACGTGTTGGT,-0.01
19,TACTGCACGTGTGGAT,-0.01
20,TTTCGCACGTGAGTTG,0.04
21,TATCTCACGTGTAGGT,0.27

row,Sequence,relative binding free energy [kcal/mol]
1,TGGGGCACGTGTCTGC,-0.06
2,GGGGGCACGTGATAAT,-0.02
3,GTAGGCACGTGCGTTA,-0.11
4,GGCTACACGTGTAGGG,0.12
5,TAATTCACGTGCATTG,0.29
6,AGATGCACGTGGATTT,-0.04
7,GGGGGCACGTGCGCTG,-0.39
8,GTGTGCACGTGGGCGT,-0.19
9,GATGACACGTGATATG,0.27
10,AGTTACACGTGGTGTC,0.06
11,CTCGTCACGTGTGTGG,0.14
12,CGGGTCACGTGGTAGT,-0.03
13,GAAAGCACGTGTGATG,0.09
14,GGTTACACGTGCAGAG,0.1
15,TGTTTCACGTGTTAGG,0.32
16,TTTATCACGTGTGCAT,0.15
17,TGTTCCACGTGTAAGG,0.01
18,ATCGACACGTGTGTGG,0.09
19,CATTTCACGTGGGTTC,0.2
20,TCTTACACGTGCGGGT,0.05
21,TGGGCCACGTGGGCGC,-0.3

row,Sequence,relative binding free energy [kcal/mol]
1,TCTGTCACGTGTGCGT,0.06
2,CATTTCACGTGTGAGT,0.48
3,GAAAGCACGTGCGGTT,0.03
4,AGTGTCACGTGTATCA,0.14
5,GTTGTCACGTGCAGTT,0.13
6,TGCATCACGTGGGTGG,0.05
7,GGAAACACGTGATGTT,0.15
8,CGTGGCACGTGGTGAA,-0.22
9,TCTTGCACGTGCTGGG,-0.05
10,AATTTCACGTGATATG,0.35
11,GTGAACACGTGCGGTT,0.14
12,TGAAGCACGTGACGTG,0.14
13,AAATTCACGTGTAGGT,0.27
14,GTTAACACGTGGGAGT,-0.07
15,GGTAGCACGTGCATGT,-0.12
16,CTTTGCACGTGCATGG,-0.02
17,GTCTGCACGTGAGGCG,0.13
18,GTCTGCACGTGGGCGG,-0.19
19,ACGTGCACGTGCGGTG,-0.23
20,ATTTTCACGTGGTAAA,0.17
21,GGGGGCACGTGGTGAA,-0.07
